Data reported in patent publication US4086345A, “Product and method for combatting swine dysentery” (Istituto Chemioterapico Italiano, priority 1977, dated 1978).
In brackets after ≈: the same amount, converted by molar mass.

What was measured:
[1] = Acute toxicity in female mice; type: in vivo, mouse
[2] = Acute toxicity in the rabbit; type: in vivo; conditions: esophageal
[3] = Acute toxicity in the rat; conditions: for Dead/Treated within 7 days: Cumulative data regardless of sex
[4] = Subacute toxicity in the mouse; conditions: 15 days
[5] = Teratogenetic study in the rat; conditions: 250 mg/kg/day oral, m±SE
[6] = Subacute toxicity in female rats; conditions: 2 g/kg/day
[7] = Teratogenetic study in the mouse; conditions: 250 mg/kg/day oral
[8] = Chronic toxicity in the female mouse; conditions: for Body Weight, Termination / Dead/Treated: 18 weeks; for Body Weight, Termination / Body Weight, Start: m±SE; for Dead/Treated: gastric gavage
Treponema hyodysenteriae = experiment: In vitro test against Treponema hyodysenteriae (MIC, MBC); conditions: Brachyspira hyodysenteriae; for MIC: read-out: minimum inhibitory concentration
[9] = test system: five strains of Vibrio cholerae; experiment: Effect on five strains of Vibrio cholerae
[10] = First Experiment, female, esophageal, 4000 mg/kg, m±SEM
[11] = First Experiment, male, endoperitoneal, 500 mg/kg, m±SEM
[12] = First Experiment, male, esophageal, 4000 mg/kg, m±SEM
[13] = Second Experiment, female, esophageal, 4000 mg/kg, ± SE
[14] = Second Experiment, female, intraperitoneal, 500 mg/kg, ± SE
[15] = Second Experiment, male, esophageal, 4000 mg/kg, ± SE

Nc1nccc(C=Cc2c[n+]([O-])c3ccccc3[n+]2[O-])n1 [CO-1, 2-[2-(2-amino-4-pyrimidinyl)ethenyl]-quinoxaline 1,4-dioxide]
Dead/Treated Animals after 7 days ([1]; 250 mg/kg, endoperitoneal): 0/18 | Dead/Treated Animals after 2 days ([1]; 1000 mg/kg, endoperitoneal): 6/6 | Dead/Treated Animals after 7 days ([1]; 1000 mg/kg, endoperitoneal): 6/6 | Dead/Treated Animals after 4 days ([1]; 1000 mg/kg, esophageal): 0/12 | Dead/Treated Animals after 1 day ([1]; 2000 mg/kg, endoperitoneal): 6/6 | Dead/Treated Animals after 7 days ([1]; 2000 mg/kg, endoperitoneal): 6/6 | Dead/Treated Animals after 4 days ([1]; 2000 mg/kg, esophageal): 0/12 | Dead/Treated Animals after 2 days ([1]; 4000 mg/kg, esophageal): 1/12 | Body Weight, Start ([2]; 500 mg/kg): 2000 to 2100 g | Body Weight, Start ([2]; 1000 mg/kg, m±SE): 2037 ± 104.3 g | Body Weight, Termination ([2]; 1000 mg/kg, m±SE): 1922.5 ± 71.5 g | dead out of treated animals, within 4 days (footnote) ([2]; 2000 mg/kg): two dead out of seven treated animals | Dead/Treated within 7 days ([3]; esophageal, 4000 mg/kg): 0/16 | Dead/Treated within 7 days ([3]; intraperitoneal, 500 mg/kg): 4/16 | Body Weight, Start ([3]; First Experiment, female, endoperitoneal, 500 mg/kg, m±SEM): 206.2 ± 8.7 g | Body Weight, Start [3, 10]: 201.2 ± 4.2 g | Body Weight, Termination [3, 10]: 238.2 ± 12.1 g | Body Weight, Start [3, 11]: 234.0 ± 6.2 g | Body Weight, Termination [3, 11]: 314.3 ± 10.3 g | Body Weight, Start [3, 12]: 234.5 ± 13.8 g | Body Weight, Termination [3, 12]: 288.7 ± 13.8 g | Body Weight, Start [3, 13]: 252.0 ± 16.6 g | Body Weight, Termination [3, 13]: 253.5 ± 12.1 g | Body Weight, Start [3, 14]: 232.5 ± 5.9 g | Body Weight, Termination [3, 14]: 218.2 ± 7.0 g | Body Weight, Start [3, 15]: 222.5 ± 6.2 g | Body Weight, Termination [3, 15]: 231.7 ± 15.7 g | Body Weight, Start ([3]; Second Experiment, male, intraperitoneal, 500 mg/kg, ± SE): 226.2 ± 6.8 g | Dead/Treated ([4]; 500 mg/kg/day, gastric gavage): 0/10 | Fresh Organ-to-Body Weight Ratio, Kidneys ([4]; 500 mg/kg/day, gastric gavage): 1.5±0.1 | Fresh Organ-to-Body Weight Ratio, Liver ([4]; 500 mg/kg/day, gastric gavage): 5.9±0.3 | % Body Weight Change ([4]; 500 mg/kg/day, gastric gavage, m+SE): -8.1±3.9% | % Body Weight Change ([4]; 1 g/kg/day in H2O, oral): 18.5±0.75% | % Body Weight Change ([4]; 1 g/kg/day in adraganth gum, oral): 16.27±1.31% | Body Weight of Fetuses [5]: 7.08 ± 0.19 g | No. of Living Fetuses per Delivery [5]: 10.8±0.86 | Average Percent Weight of Fresh Organs, Kidneys ([6]; 21 days, m±SE, 5 animals): 1.04±03% | Average Percent Weight of Fresh Organs, Liver ([6]; 21 days, m±SE, 5 animals): 4.54 ± 0.10% | Average Percent Weight of Fresh Organs, Lung ([6]; 21 days, m±SE, 5 animals): 1.07±0.09% | Body Weight, Termination ([6]; gastric gavage, 21 days, m±SE): 210.6 ± 9.6 g | Dead/Treated ([6]; gastric gavage, 21 days, death caused by a mistake in esophagus incannulation): 1/6 | Body Weight, Start ([6]; gastric gavage, m±SE): 204.1 ± 2.0 g | Pregnant/Treated Animals ([7]; 3rd to 13th days): 3/10 | Body Weight of Fetuses ([7]; m±SE): 1.42 ± 0.05 g | No. of Living Fetuses per Delivery ([7]; m±SE): 10.3±0.6 | Body Weight, Termination ([8]; 250 mg/kg/day): 26.7 ± 0.7 g | Dead/Treated ([8]; 250 mg/kg/day): 0/10 | Body Weight, Start ([8]; 250 mg/kg/day): 27.3+0.5 g | Body Weight, Termination ([8]; 500 mg/kg/day): 30.0 ± 0.7 g | Dead/Treated ([8]; 500 mg/kg/day): 2/10 | Body Weight, Start ([8]; 500 mg/kg/day): 30.4 ± 0.9 g | Urine Amount ([8]; 500 mg/kg/day, excreted by 6 animals in 6 hours): 7 mL | MIC (Treponema hyodysenteriae): 0.1 µg/mL (≈ 0.356 µM) | Growth of the five Vibrio cholerae strains ([9]; 10 μg/ml, after 48 hours): no growth of 3 of the organisms | Growth of the five Vibrio cholerae strains ([9]; 100 μg/ml): only marginal growth of the remaining two

Cc1cc(C=Cc2c[n+]([O-])c3ccccc3[n+]2[O-])nc(N)n1 [CO-2, 2-[2-(2-amino-6-methyl-4-pyrimidinyl)ethenyl]-quinoxaline 1,4-dioxide]
MBC (Treponema hyodysenteriae; read-out: minimum bacteriocidal concentration): < 1 µg/mL | MIC (Treponema hyodysenteriae): ~0.1 µg/mL (≈ 0.339 µM) | Growth of the five Vibrio cholerae strains ([9]; 100 μg/ml): only marginal growth of the remaining two
